Experimental data published in the RNAGym collection of RNA variant scans (doi:10.7554/elife.90254).
The source gives no read counts; variants with many changes may rest on few reads.

B1: LINE1-mini (parent)
chain: GGCAGAGCUCAACACAGCGUGGCAAAGUGGCUGUGGCUAGACUGCC

Variants of: B1
Test: self-cleavage, relative activity (ratio to wild type); higher = more cleavage; in vitro, sequencing; the parent is a self-cleaving ribozyme
Variant C10U C13A U34C has a self-cleavage of 0.04. C10A G19A G21U C31A G40U C46A gave a self-cleavage of 0. C10A U28C G30A C42G showed a self-cleavage of 0. In the case of C10A U28C U43A, the self-cleavage is reported as 0. C10G A12U C45U gave a self-cleavage of 0.01. C10A G19U A41G gave a self-cleavage of 0.01. C10A G19U A26C C37G gave a self-cleavage of 0. For C10A C23G G30U G33A C37G C42A, the self-cleavage was 0.01. C10A U20A C37A G40C gave a self-cleavage of 0.01. For C10G C15A G21U G30A U32A U34G, the self-cleavage was 0.01. C10U C13G A26U C37G C46G gave a self-cleavage of 0.02. In the case of C10G A12G C18G C23U G30C C31U A39U, the self-cleavage is reported as 0.01. With C10U A41G G44U the self-cleavage was 0.03. Work on C10A G30U G33A U34G yielded a self-cleavage of 0.01. C10G A11U C15U A16C C18A A26C gave a self-cleavage of 0.03. C10U A12G C15A showed a self-cleavage of 0.03. For C10U A11G G44C, the self-cleavage was 0.03. C10A G19C U34C showed a self-cleavage of 0.02. C10G U32G A39C U43C showed a self-cleavage of 0. In the case of C10G G40C U43G, the self-cleavage is reported as 0.02. Work on C10A G33U U38C U43A yielded a self-cleavage of 0. C10G U34G A39C gave a self-cleavage of 0.02. C10G A26G G35A showed a self-cleavage of 0.01. Work on C10A C18G C42U yielded a self-cleavage of 0.02. C10G G22U A25C gave a self-cleavage of 0.09. C10G G30C A41C C42U gave a self-cleavage of 0. C10A C18U U43A gave a self-cleavage of 0.03. C10G G33A A39U showed a self-cleavage of 0. C10A C18A G30A showed a self-cleavage of 0.1. In the case of C10A G29U A41G C46A, the self-cleavage is reported as 0.01. In the case of C10A C18G G27A C31U A39C C42A, the self-cleavage is reported as 0. C10G C23U U38A C42U gave a self-cleavage of 0.04. C10G A11C G30A gave a self-cleavage of 0.03. C10A G19C G30U U34G gave a self-cleavage of 0.12. C10A G30U C31A C42U showed a self-cleavage of 0.11. Variant C10A G19U A24U has a self-cleavage of 0.03. C10A G33C C42U gave a self-cleavage of 0.02. C10U A14C C15G C45U showed a self-cleavage of 0.01. Variant C10G G17A G21A C31A has a self-cleavage of 0.06. For C10A G40U U43A, the self-cleavage was 0.02. With C10A U20C A39C C42G the self-cleavage was 0.02. In the case of C10A C13A G19A G35U G44C, the self-cleavage is reported as 0.15. For C10A G22A G35U, the self-cleavage was 0.02. Work on C10U A11G G17A A24U U43G G44A yielded a self-cleavage of 0. C10G G40A A41G showed a self-cleavage of 0. In the case of C10G A14C C46A, the self-cleavage is reported as 0.02. Variant C10G C37U U43C has a self-cleavage of 0.01. Variant C10U A11G A39G has a self-cleavage of 0. C10G C23U G33C U38C G44A gave a self-cleavage of 0.01. With C10G A41G G44C the self-cleavage was 0.04. In the case of C10A G22U C31A A41G, the self-cleavage is reported as 0.03. Work on C10G U20C G33A yielded a self-cleavage of 0.01. Work on C10G G21A U34A G35A G40A yielded a self-cleavage of 0. C10U A12U G27C G29C U32G showed a self-cleavage of 0.04. C10U A16U G40C showed a self-cleavage of 0. For C10G C18U G27A G35U, the self-cleavage was 0. In the case of C10A G36C A41G, the self-cleavage is reported as 0.02. Work on C10U A11C G17A G21C C42U C46U yielded a self-cleavage of 0.02. In the case of C10A G27U G29C U32A C37G A39C, the self-cleavage is reported as 0.01. In the case of C10G A24U A41C, the self-cleavage is reported as 0.01. C10A C42G C46U gave a self-cleavage of 0.01. Work on C10A C42G C46A yielded a self-cleavage of 0.02. Work on C10G G19C A41U G44U yielded a self-cleavage of 0.01. With C10G C23G U34C the self-cleavage was 0.01. For C10A G22U C23A G35A, the self-cleavage was 0.01. C10G C15A G21U A26C U32A G33C gave a self-cleavage of 0.01. C10G A14G G17U showed a self-cleavage of 0.01. For C10G A24C C42G, the self-cleavage was 0.02. C10U A24U G27U C45G showed a self-cleavage of 0.01. For C10G G30U C37G, the self-cleavage was 0.01. C10A C15G C18U G21A G33A showed a self-cleavage of 0.02. For C10G C15U G21C C23U C42A, the self-cleavage was 0.02. In the case of C10G C13U C37A C45U, the self-cleavage is reported as 0.01. Variant C10A A26U U43A has a self-cleavage of 0.01. C10A C31A C45U showed a self-cleavage of 0.03. C10U A14G A39U gave a self-cleavage of 0.95. In the case of C10U A25U G29A A39U, the self-cleavage is reported as 0.19. C10G A11U C23G gave a self-cleavage of 0.02. With C10A G33A G35U the self-cleavage was 0. C10A A26U G29U showed a self-cleavage of 0.01. C10A G17C C23A gave a self-cleavage of 0.04. For C10G C15A G36C A39G, the self-cleavage was 0. Work on C10U A24C G33C yielded a self-cleavage of 0.05. Variant C10G C15U U20A A25C has a self-cleavage of 0.06.
